# From article PMC6919601, “Identification of Plasmodium dipeptidyl aminopeptidase allosteric inhibitors by high throughput screening” (PLoS ONE, 2019)
# In all, about 110,000 compounds went through this assay and about 230 (0.21%) showed an effect of 50% or more. The list shows a part of the results.
# Molecular target: DPAP1 (Plasmodium falciparum, UniProt Q8IIJ9)
# Experiment: primary screen, percent inhibition; read by cleavage of a fluorogenic dipeptide substrate; higher = more effect of the substance
# Parameters: species or system P. falciparum D10 trophozoite lysates; single well
# 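Further: 30 min substrate incubation versus DMSO and 10 µM JCP410 controls.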
# DPAP1, sequence (Q8IIJ9 whole entry, looked up): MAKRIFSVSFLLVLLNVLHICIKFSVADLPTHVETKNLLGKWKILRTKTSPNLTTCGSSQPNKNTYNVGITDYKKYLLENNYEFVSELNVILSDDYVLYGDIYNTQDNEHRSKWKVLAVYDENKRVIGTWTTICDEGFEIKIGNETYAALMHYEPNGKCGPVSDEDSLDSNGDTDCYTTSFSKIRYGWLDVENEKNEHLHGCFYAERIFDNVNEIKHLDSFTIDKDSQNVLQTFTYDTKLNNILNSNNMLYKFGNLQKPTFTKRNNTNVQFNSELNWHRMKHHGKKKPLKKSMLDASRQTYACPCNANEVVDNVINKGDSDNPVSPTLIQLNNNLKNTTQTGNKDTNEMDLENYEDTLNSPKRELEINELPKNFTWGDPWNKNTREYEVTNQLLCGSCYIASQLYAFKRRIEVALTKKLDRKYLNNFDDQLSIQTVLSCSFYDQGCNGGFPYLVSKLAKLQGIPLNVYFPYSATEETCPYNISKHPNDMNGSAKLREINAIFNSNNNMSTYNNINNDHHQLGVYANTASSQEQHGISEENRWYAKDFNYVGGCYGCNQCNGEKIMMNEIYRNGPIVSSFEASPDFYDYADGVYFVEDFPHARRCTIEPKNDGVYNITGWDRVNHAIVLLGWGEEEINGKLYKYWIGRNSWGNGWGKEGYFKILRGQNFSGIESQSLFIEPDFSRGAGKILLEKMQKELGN
row,Compound,% Inhibition @ 10 uM [%]
1,COc1ccc(Br)cc1/C=C1\Cc2ccccc2C1=O,4.06
2,Cc1ccc(S(=O)(=O)N2CCCC2C(=O)Nc2nc3c(s2)CCCC3)cc1 (stereo not drawn),-3.92
3,CCOC(=O)N1CCN(C(=O)/C(=C\c2ccc3c(c2)OCO3)NC(=O)c2cccs2)CC1,-2.54
4,O=C1NC(c2cccc(O)c2)C(C(=O)c2cccnc2)C(O)(C(F)(F)F)N1 (stereo not drawn),-5
5,Cc1ccc(-c2nc3c4cnn(-c5c(F)c(F)cc(F)c5F)c4ncn3n2)cc1,-4.64
6,CC(=O)N[C@H]1[C@H](Oc2cccc(C)c2)O[C@@H]2COC(C)(C)O[C@H]2[C@@H]1O,4
7,COc1ccccc1N1CCN(C(=O)CN(CCc2ccccc2)S(C)(=O)=O)CC1,0.408
8,CC(=O)N1CC[C@@]2(O)CCCC[C@@H]2[C@H]1c1cccc(Cl)c1Cl,-1.07
9,O=CN1CCN(C(=O)CCCC(=O)c2ccccc2)CC1,-1.68
10,COc1ccc(N2CCN(C(=O)CN(c3cc(Cl)cc(Cl)c3)S(C)(=O)=O)CC2)cc1,4.88
11,Cc1c(C(=O)O)oc2ccc(S(=O)(=O)NCc3ccc4c(c3)OCO4)cc12,1.16
12,Cc1nn(C(C)C(=O)NCc2ccc(OC(C)C)cc2)c(=O)c2nn(-c3ccccc3)c(C)c12 (stereo not drawn),3.16
13,NC1=C(c2ccccc2)S(=O)(=O)c2cc(OCC(F)(F)F)ccc21,-4.49
14,Cc1sc(C(=O)O)c(C)c1-c1c(C)sc(C(=O)O)c1C,-12.9
15,CC(C)CSc1nc(O)c2cnn(-c3ccccc3)c2n1,-1.76
16,COc1ccc(OCC(=O)Nc2cccc3cccnc23)cc1,-5.92
17,O=C(O)CSc1cc(C(=O)O)ccc1[N+](=O)[O-],-5.28
18,CCn1ncc(Cl)c1C(=O)NC(C)C1CC2CCC1C2 (stereo not drawn),0.673
19,N#CC1=C(N)Oc2c(c(O)nc3ccccc23)C1c1ccc(Cl)cc1Cl (stereo not drawn),19.3
20,CCN1CCN(C(=O)CS(=O)Cc2nc(-c3cccc(C)c3)oc2C)CC1 (stereo not drawn),3.99
21,CCc1c(C)sc(NC(=O)c2cc(-c3cccc(OC)c3)on2)c1C#N,-1.28
22,COc1ccc(N2C(=O)CC(N3CCN(C(=O)CN4CCCC4)CC3)C2=O)cc1 (stereo not drawn),-2.74
23,CNC(=O)C1=C(C)N=C(S)NC1c1ccc(OCC(C)C)cc1 (stereo not drawn),-5.25
24,Cc1ccc(S(=O)(=O)Cc2nc(-c3ccc(C(=O)NCc4ccc(C)o4)cc3)oc2C)cc1,-0.416
25,CCCCCCc1c(O)nc(S)nc1O,22.8
26,O=C(NCc1ccccc1)c1cc2n(n1)C(C(F)(F)F)CC(c1ccccc1)N2 (stereo not drawn),-2.85

row,Compound,% Inhibition @ 10 uM [%]
1,Cc1cccc(OCC(O)Cn2c(NCCCn3ccnc3)nc3c2c(=O)[nH]c(=O)n3C)c1 (stereo not drawn),2.31
2,Oc1c(C(c2ccccn2)N2CCN(c3ccccn3)CC2)ccc2cccnc12 (stereo not drawn),2.4
3,CSc1cccc(NC(=O)c2ccc(Cl)cc2Cl)c1,-7.4
4,Cc1ccc(C)c(Cn2c(=O)ccn(CCOc3ccc(Cl)cc3)c2=O)c1,-1.85
5,COc1ccccc1NC1=C(Cl)C(=O)N(Cc2ccccc2)C1=O,1.08
6,COc1ccccc1N1CCN(C(=O)c2cccc([N+](=O)[O-])c2)CC1,1.55
7,Cc1ccc(S(=O)(=O)NC2=NCN(CC(=O)O)CN2)cc1,1.26
8,NS(=O)(=O)c1ccc(CC/N=C2/C=C(O)CC(c3ccco3)C2)cc1 (stereo not drawn),0.777
9,Cc1cc(=O)n2nc(N3CCCC(C(=O)N4CCN(C)CC4)C3)sc2n1 (stereo not drawn),1.38
10,O=S(=O)(NCC1CCCO1)c1ccc2[nH]c3c(c2c1)CCCCC3 (stereo not drawn),5.66
11,CC1CCc2c(C(=O)NCCc3ccc(Cl)cc3)csc2C1 (stereo not drawn),-1.44
12,Cc1noc2ncnc(NC3CCCCC3)c12,-9.36
13,O=C(O)c1nccnc1C(=O)Nc1cccc(O)c1,-5.9
14,Cc1ccccc1NC(=O)c1nccnc1C(=O)O,-2.18
15,CCCCC(=O)Nc1ccc(NC(=O)C(C)C)c(OC)c1,1.37
16,O=C(Nc1ccccn1)C1OCCc2ccccc21 (stereo not drawn),-0.45
17,Cc1ccc2nsnc2c1S(=O)(=O)NCc1ccncc1,2.18
18,CCc1cccc2c(C#N)cn(CC(=O)N3CCOCC3)c12,3.19
19,COCCNC(=O)c1cccc2c1-c1ccccc1C2=O,-4.51
20,CC(CN1CCN(C)CC1)c1ccccc1 (stereo not drawn),-1.78
21,COc1cc(C(=O)N(Cc2ccc(Cl)cc2)Cc2ccco2)cc(OC)c1OC,-4.02
22,Cc1nc2ccccc2c2oc(C(=O)NCCN3CCCCC3C)cc12 (stereo not drawn),-9.07
23,O=C(CCn1cnnn1)Nc1ncccn1,5.93
24,CC(C)c1ccc(N2CC(C(=O)Nc3ccc(Br)cc3)CC2=O)cc1 (stereo not drawn),3.32
25,O=C1c2ccc(-c3ccc4c(c3)C(=O)N(CCO)C4=O)cc2C(=O)N1CCO,1.63
26,Cc1noc(C(=O)N2CCN(C(c3ccccc3)c3ccccc3)CC2)c1Cl,-0.0115

row,Compound,% Inhibition @ 10 uM [%]
1,CCCOc1ccc(-c2ccc(C#N)cc2)cc1,1.41
2,CC1CCc2c(sc(N)c2C(=O)OC(C)C)C1 (stereo not drawn),30.4
3,N#CC1=C(N)SC2c3ccccc3CCC12 (stereo not drawn),10.3
4,COc1ccc(C(=O)N(Cc2ccc(C)o2)C2CCS(=O)(=O)C2)cc1Cl (stereo not drawn),-1.11
5,COc1ccc(-c2noc(N3CCCC(C(=O)N4CCCCCC4)C3)n2)cc1 (stereo not drawn),-0.431
6,COc1cc(CN2CCCC(O)C2)cc(OC)c1 (stereo not drawn),0.829
7,c1ccc(CC2=NNC(c3ccccc3)S2)cc1 (stereo not drawn),3.32
8,COc1ccc(S(=O)(=O)N2CCC(NC(=O)NCc3ccc(C)cc3)CC2)cc1,0.425
9,COc1ccccc1CNc1nc2ccccc2c2nc(CCn3nc(C)cc3C)nn12,-2.42
10,Oc1c2c(nc3cc(-c4ccc(-c5ccccc5)cc4)nn13)CCC2,-9.63
11,N#CCNC(=O)[C@H](CS(=O)(=O)Cc1ccccc1)NC(=O)c1ccc(O)cc1,3.1
12,C/C(=N\Cc1ccco1)c1c(C(F)(F)F)nn(-c2nc3ccccc3s2)c1O,-1.06
13,Cc1cc(C)n2nc(SCC(=O)Nc3ccc(Cl)cc3)nc2n1,-6.83
14,Oc1cc(O)c2sc3nc(-c4ccncc4)ccc3c2n1,3.39
15,CC(=O)c1nn(-c2ccccc2)cc1C(=O)c1ccc(C)cc1,3.69
16,COc1cccc(/C=C2/SC(=O)N(CC(=O)N3CCc4ccccc4C3)C2=O)c1OCC(=O)O,1.17
17,CCCC(=O)Nc1ccc(S(=O)(=O)Nc2ccc(C)cc2C)cc1,-1.61
18,Cn1c(=O)c2c(nc(NCCCc3ccccc3)n2Cc2ccc(Br)cc2)n(C)c1=O,-3.5
19,CCC(C)c1ccc(NC(=O)CSc2nc(C)cc(C)n2)cc1 (stereo not drawn),-2.17
20,CC(CCc1ccccc1)NCCCN1CCOCC1 (stereo not drawn),-0.292
21,COc1ccc(CCNC(=O)COc2ccc(Cl)cc2C)cc1OC,1.84
22,COc1ccc(CC(=O)Nc2ccccc2OC)cc1,-0.294
23,O=C(CSCC(=O)c1ccccc1)Nc1ccccc1,-4.43
24,O=S(=O)(Nc1cccnc1)c1ccc2ccccc2c1,4.06
25,Cc1nc(O)c(C(=O)/C=C/c2ccc(Cl)cc2)c2c1CCCC2,0.135
26,C=CCOc1ccc2oc(-c3ccc(OC)cc3)cc(=O)c2c1,6.28

row,Compound,% Inhibition @ 10 uM [%]
1,CCOc1cc(C(=O)N2CCOCC2)cc(OCC)c1OCC,-0.999
2,O=C(O)c1ccc(CN2CCOCC2)o1,3.42
3,CC(C)(C)c1ccc(S(=O)(=O)Nc2ccc(C(=O)Nc3ccncc3)cc2)cc1,-5.3
4,COc1ccc(OC)c(CN(C)C2CCN(C)CC2)c1,0.708
5,CCOC(=O)c1sc(C)c(C(N)=O)c1N,3.82
6,CC1(C)CC(=O)C2=C(C1)OC(N)=C(C#N)C21CCCCC1,4.12
7,O=c1c(Cl)c(NCc2ccco2)cnn1C12CC3CC(CC(C3)C1)C2,8.63
8,O=C(O)COc1ccc(Br)cc1/C=C1\NC(=O)N(Cc2ccc(Cl)cc2)C1=O,3.6
9,CC(CNC(=O)CN(C)c1nnc(N2CCCC2=O)s1)c1ccccc1 (stereo not drawn),-3.43
10,COc1ccc(-c2ccc(C#N)c(SCC(=O)NCc3ccco3)n2)cc1OC,3.99
11,Cc1nc2cc(Br)c(Br)cc2n1-c1ccccc1,-2.03
12,Cc1cc(C)cc(NC(=O)CSc2nc3ccccc3o2)c1,-8.52
13,CC(=O)Nc1cccc(C2=CC(c3ccco3)n3ncnc3N2)c1 (stereo not drawn),6.97
14,CC1=C(C(=O)OCc2ccccc2)C(c2ccsc2)NC(=O)N1C (stereo not drawn),14.5
15,CCN(CC)CCCn1c(C)cc2c(c1=O)C(c1ccc(Cl)cc1)C(C#N)=C(N)O2 (stereo not drawn),-3.14
16,O=C(NCCNCCO)c1c(O)nc2c(c1O)CCCC2,-2.38
17,CN1CCN(C2=Cc3ccccc3Sc3cc(F)c(F)cc32)CC1,-8.83
18,CCC(=O)c1ccc(N2CCN(C(=O)c3ccc(F)cc3)CC2)c(F)c1,-3.45
19,O=C(C1=C(O)C(=O)N(CCCN2CCOCC2)C1c1cccnc1)c1cc2ccccc2o1 (stereo not drawn),-13.5
20,Cc1cccc(OCC(=O)Nc2ccc(NC(=O)c3cccs3)cc2)c1,-5.6
21,CCOC(=O)N1CCC2(CC1)OC(=O)C(C)=C2C(=O)NCCc1ccc(Cl)cc1,1.86
22,COc1ccc(CCNC(=O)CN(c2ccc(C)cc2)S(=O)(=O)c2ccccc2)cc1OC,1.63
23,CC(C)NC(=O)Cn1c(=O)sc2ccccc21,-0.833
24,O=C(Cn1cnc2c(nnn2Cc2ccc(F)cc2)c1=O)N1CCCC1,-3.94
